# Measured values published in the supplement of paper PMC8728848.
# The list shows a part of the results.
# B1: SP16664D-bth-476-27-476 (Bacteroides thetaiotaomicron) (protein)
# chain: DDLEVGKNIDESAYSGIYENNAYLRDGKSNLVSKVVELHGETYATTVKMGLSKTPNTATSAKVKIDAAYLETYNKAHNTDFALYPQDLVTFANEGILTVNANTKSAEVEMTIRAGEGLQEDKTYAIPVAISDQSSDITIKDEDAKHCIYLVKDMRNAGDAYKGEGVMQGYLFFEVNDVNPLNTLSFQLENGKLLWDVVVLFAANINYDAEAGRPRVQCNPNVQYLLDNNETLLQPLRRRGVKVLLGLLGNHDITGLAQLSEQGAKDFAREVAQYCKAYNLDGVNYDDEYSNSPDLSNPSLTNPSTAAAARLCYETKQAMPDKLVTVFDWGQMYGVATVDGVDAKEWIDIVVANYGSAAYPIGQMTKKQCSGISMEFNLGGGGSLSASKAQSMIDGGYGWFMGFAPSPAKYGSVFSRLQGGGEVLYGSNVAAPTIFYKKNDPTPYKYPDDL
# Tests used:
# Test in all cases: glycan array binding signal (z-score within array); higher = stronger binding
# Conditions in all cases: glycan notation: IUPAC condensed, linker removed
# [1] = target: Fuc(a1-2)[Gal(a1-4)]Gal(b1-4)GlcNAc
# Outline: (§1)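 Glycan array data were curated from 3228 arrays in the Consortium for Functional Glycomics database and kept only where the protein sequence was available. Glycan names were converted to IUPAC-condensed notation, and columns mapping to the same glycan were averaged. The binding signal is a within-array Z-score, averaged across arrays of the same protein sequence at different concentrations or buffers and across linkers. Negative Z-scores can be read as non-binding.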
# [2] = target: Fuc(a1-2)[GalNAc(a1-3)]Gal
# Outline: as §1
# [3] = target: Fuc(a1-2)[GalNAc(a1-3)]Gal(b1-3)GalNAc(a1-3)[Fuc(a1-2)]Gal(b1-4)GlcNAc
# Outline: as §1
# [4] = target: Fuc(a1-2)[GalNAc(a1-3)]Gal(b1-3)GalNAc(b1-3)Gal(a1-4)Gal(b1-4)Glc
# Outline: as §1
# [5] = target: Fuc(a1-2)[GalNAc(a1-3)]Gal(b1-3)GlcNAc
# Outline: as §1
# [6] = target: Fuc(a1-2)[GalNAc(a1-3)]Gal(b1-3)GlcNAc(b1-2)Man(a1-3)[Fuc(a1-2)[GalNAc(a1-3)]Gal(b1-3)GlcNAc(b1-2)Man(a1-6)]Man(b1-4)GlcNAc(b1-4)GlcNAc
# Outline: as §1
# [7] = target: Fuc(a1-2)[GalNAc(a1-3)]Gal(b1-3)GlcNAc(b1-2)Man(a1-3)[Fuc(a1-2)[GalNAc(a1-3)]Gal(b1-3)GlcNAc(b1-2)Man(a1-6)]Man(b1-4)GlcNAc(b1-4)[Fuc(a1-6)]GlcNAc
# Outline: as §1
# [8] = target: Fuc(a1-2)[GalNAc(a1-3)]Gal(b1-3)GlcNAc(b1-3)GalNAc
# Outline: as §1
# [9] = target: Fuc(a1-2)[GalNAc(a1-3)]Gal(b1-3)GlcNAc(b1-6)GalNAc
# Outline: as §1
# [10] = target: Fuc(a1-2)[GalNAc(a1-3)]Gal(b1-4)Glc
# Outline: as §1
# [11] = target: Fuc(a1-2)[GalNAc(a1-3)]Gal(b1-4)GlcNAc
# Outline: as §1
# [12] = target: Fuc(a1-2)[GalNAc(a1-3)]Gal(b1-4)GlcNAc(b1-2)Man
# Outline: as §1
# [13] = target: Fuc(a1-2)[GalNAc(a1-3)]Gal(b1-4)GlcNAc(b1-2)Man(a1-3)[Fuc(a1-2)[GalNAc(a1-3)]Gal(b1-4)GlcNAc(b1-2)Man(a1-6)]Man(b1-4)GlcNAc(b1-4)GlcNAc
# Outline: as §1
# [14] = target: Fuc(a1-2)[GalNAc(a1-3)]Gal(b1-4)GlcNAc(b1-2)Man(a1-3)[Fuc(a1-2)[GalNAc(a1-3)]Gal(b1-4)GlcNAc(b1-2)Man(a1-6)]Man(b1-4)GlcNAc(b1-4)[Fuc(a1-6)]GlcNAc
# Outline: as §1
# [15] = target: Fuc(a1-2)[GalNAc(a1-3)]Gal(b1-4)GlcNAc(b1-3)Gal(b1-4)GlcNAc
# Outline: as §1
# [16] = target: Fuc(a1-2)[GalNAc(a1-3)]Gal(b1-4)GlcNAc(b1-3)Gal(b1-4)GlcNAc(b1-3)Gal(b1-4)GlcNAc
# Outline: as §1
# [17] = target: Fuc(a1-2)[GalNAc(a1-3)]Gal(b1-4)GlcNAc(b1-3)GalNAc
# Outline: as §1
# [18] = target: Fuc(a1-2)[GalNAc(a1-3)]Gal(b1-4)GlcNAc(b1-3)[Fuc(a1-2)[GalNAc(a1-3)]Gal(b1-4)GlcNAc(b1-6)]GalNAc
# Outline: as §1
# [19] = target: Fuc(a1-2)[GalNAc(a1-3)]Gal(b1-4)GlcNAc(b1-6)GalNAc
# Outline: as §1
# [20] = target: Fuc(a1-2)[GalNAc(a1-3)]Gal(b1-4)[Fuc(a1-3)]GlcNAc
# Outline: as §1
# [21] = target: Fuc(a1-2)[GalNAc(a1-3)]Gal(b1-4)[Fuc(a1-3)]GlcNAc(b1-3)GalNAc
# Outline: as §1
# [22] = target: Fuc(a1-2)[GalNAc(a1-4)]Gal(b1-4)GlcNAc
# Outline: as §1
# [23] = target: Fuc(a1-2)[GalNAc(b1-3)]Gal
# Outline: as §1
# Fuc(a1-3)GlcNAc = target: Fuc(a1-3)GlcNAc
# Outline: as §1
# [24] = target: Fuc(a1-3)[Gal(b1-4)]Glc6S
# Outline: as §1
# [25] = target: Fuc(a1-3)[Gal(b1-4)]GlcNAc
# Outline: as §1
# [26] = target: Fuc(a1-3)[Gal(b1-4)]GlcNAc(b1-2)Man
# Outline: as §1
# [27] = target: Fuc(a1-3)[Gal(b1-4)]GlcNAc(b1-2)Man(a1-3)[Fuc(a1-3)[Gal(b1-4)]GlcNAc(b1-2)Man(a1-6)]Man(b1-4)GlcNAc(b1-4)GlcNAc
# Outline: as §1
# [28] = target: Fuc(a1-3)[Gal(b1-4)]GlcNAc(b1-2)Man(a1-3)[Fuc(a1-3)[Gal(b1-4)]GlcNAc(b1-2)Man(a1-6)]Man(b1-4)GlcNAc(b1-4)[Fuc(a1-6)]GlcNAc
# Outline: as §1
# [29] = target: Fuc(a1-3)[Gal(b1-4)]GlcNAc(b1-3)Gal(b1-3)[Fuc(a1-4)]GlcNAc
# Outline: as §1
# [30] = target: Fuc(a1-3)[Gal(b1-4)]GlcNAc(b1-3)Gal(b1-4)[Fuc(a1-3)]GlcNAc
# Outline: as §1
# [31] = target: Fuc(a1-3)[Gal(b1-4)]GlcNAc(b1-3)Gal(b1-4)[Fuc(a1-3)]GlcNAc(b1-3)Gal(b1-4)[Fuc(a1-3)]GlcNAc
# Outline: as §1
# [32] = target: Fuc(a1-3)[Gal(b1-4)]GlcNAc(b1-3)GalNAc
# Outline: as §1
# [33] = target: Fuc(a1-3)[Gal(b1-4)]GlcNAc(b1-6)GalNAc
# Outline: as §1
# [34] = target: Fuc(a1-3)[Gal(b1-4)]GlcNAc(b1-6)[Gal(b1-3)GlcNAc(b1-3)]Gal(b1-4)Glc
# Outline: as §1
# [35] = target: Fuc(a1-3)[Gal(b1-4)]GlcNAc6S
# Outline: as §1
# [36] = target: Fuc(a1-3)[Gal3S(b1-4)]Glc
# Outline: as §1
# [37] = target: Fuc(a1-3)[Gal3S(b1-4)]GlcNAc
# Outline: as §1
binder,measurement,setting,value
B1,glycan array binding signal (z-score),[1],-0.019
same,glycan array binding signal (z-score),[2],-0.152
same,glycan array binding signal (z-score),[3],-0.172
same,glycan array binding signal (z-score),[4],-0.157
same,glycan array binding signal (z-score),[5],-0.092
same,glycan array binding signal (z-score),[6],0.08
same,glycan array binding signal (z-score),[7],-0.132
same,glycan array binding signal (z-score),[8],-0.208
same,glycan array binding signal (z-score),[9],-0.256
same,glycan array binding signal (z-score),[10],0.121
same,glycan array binding signal (z-score),[11],-0.001
same,glycan array binding signal (z-score),[12],-0.076
same,glycan array binding signal (z-score),[13],-0.269
same,glycan array binding signal (z-score),[14],-0.014
same,glycan array binding signal (z-score),[15],-0.331
same,glycan array binding signal (z-score),[16],0.006
same,glycan array binding signal (z-score),[17],-0.353
same,glycan array binding signal (z-score),[18],-0.178
same,glycan array binding signal (z-score),[19],-0.212
same,glycan array binding signal (z-score),[20],-0.15
same,glycan array binding signal (z-score),[21],0.081
same,glycan array binding signal (z-score),[22],-0.218
same,glycan array binding signal (z-score),[23],-0.278
same,glycan array binding signal (z-score),Fuc(a1-3)GlcNAc,-0.054
same,glycan array binding signal (z-score),[24],0.287
same,glycan array binding signal (z-score),[25],-0.13
same,glycan array binding signal (z-score),[26],-0.134
same,glycan array binding signal (z-score),[27],0.013
same,glycan array binding signal (z-score),[28],3.02
same,glycan array binding signal (z-score),[29],0.143
same,glycan array binding signal (z-score),[30],0.096
same,glycan array binding signal (z-score),[31],-0.224
same,glycan array binding signal (z-score),[32],-0.175
same,glycan array binding signal (z-score),[33],0.302
same,glycan array binding signal (z-score),[34],0.027
same,glycan array binding signal (z-score),[35],-0.117
same,glycan array binding signal (z-score),[36],-0.187
same,glycan array binding signal (z-score),[37],-0.196
